# The RNAGym collection of RNA variant scans (doi:10.7554/elife.90254)
# Read counts are not given, so values of variants with three or more changes are uncertain.
# B1: LINE1-mini (parent)
# chain: GGCAGAGCUCAACACAGCGUGGCAAAGUGGCUGUGGCUAGACUGCC
# Variants of: B1
# Test: self-cleavage, relative activity (ratio to wild type); higher = more cleavage; in vitro, sequencing; the parent is a self-cleaving ribozyme
row,Variant,self-cleavage
1,A4C C10U A25U G35U U43A C45A,0.02
2,C3U U28A U34A C45G,0.03
3,A4C C8U C18U G35C C37U,0.07
4,C3U G33C U34A,0.15
5,A4C A6G G21U U28G,0.07
6,A4C C13A A41C,0.02
7,C3U U9C C13G G17A C42A,0.03
8,C3U U28G G40A,0.05
9,A4C A16C G21C A25C C45A,0.21
10,A4C C8A U9C C23A G35U,0.11
11,A4C A12U C13A G17A G21A C23U U34C,0.11
12,A4C C10A U20A A25C G30U C42U,0.01
13,C3U G27C G33A G40C,0.11
14,C3U U34G G44A,0.13
15,A4C C18A A39U C42U,0.04
16,A4C A26G G40U C45A,0.03
17,A4C C8A U43C,0.1
18,A4C A6U C15G G19U U32G G44U,0.02
19,A4C A6C C8U U9C C15A,0.06
20,A4C A6C U9A C23U G30U,0.04
21,C3U G29U G36U C37U,0.02
22,A4C C10G C31A G35C G36A C42G,0.02
23,A4C C13G G22C G40C,0.04
24,A4C A12C C23A U34A,0.03

row,Variant,self-cleavage
1,C3U G27U G44C,0.17
2,A4C C18A C23G A24C G30U C31A G40C G44A,0
3,C3U U9A G19C G22A,0.03
4,A4C A16G U28G G33C,0.02
5,C3U U9G A14G,0.09
6,C3U G27A U28G,0.14
7,C3U U9C G19C G36C U43C,0.02
8,C3U G27A U32A,0.2
9,A4C A11G C31A U32A U34A C42U,0.01
10,A4C C15G G30A G33U C45A C46A,0
11,C3U G21A A24G,0.73
12,A4C C13G C42A,0.13
13,C3U U9C A14G U34A,0.06
14,C3U G19C G21U A25U U32A G36C,0.05
15,A4C A14C A16U G22C G30C G36A G40C,0.02
16,C3U G7U C10G A39G,0.03
17,C3U G19U G27A,1.07
18,A4C A14U A16C G27A,0.08
19,C3U G40A C46G,0.06
20,C3U U38A G40A,0.11
21,A4C C18A A41G,0.02
22,C3U G33C U38G,0.03
23,A4C A14C C23G G33C U38G,0.02
24,C3U U9C G36C,0.03

row,Variant,self-cleavage
1,C3U G40U C42U,0
2,A4C A14G C15A G40U C42U,0.05
3,A4C A26U U34A,0.1
4,C3U G21U G27A G36A,0.16
5,A4C C8G G27A U32A,0.04
6,A4C C13U C15U,0.07
7,C3U G22A G27A G44C,0.29
8,A4C A12C A16G G19A,0.05
9,A4C C13U G17A G40A,0.06
10,A4C A26G U32C G40U,0.16
11,A4C C15U G17U G30U G33U,0.17
12,A4C C10G G33U A39U G40C A41C,0.01
13,A4C A11C C45U,0.01
14,C3U G27U U38C,0.12
15,A4C C10U C45G,0.07
16,C3U U20C G36C G40C,0.03
17,A4C A11G C15A G33A U34C,0.01
18,C3U G29U G30A C31G G40A C45U,0.05
19,C3U U20C G21C C23G G36A C46A,0.02
20,A4C C8G G35A A41U,0.28
21,A4C A6G C23U,0.03
22,C3U U20C G33C U38G,0.02
23,A4C C15U C31A U32G C37G,0.05
24,C3U G30A C31A,0.06

row,Variant,self-cleavage
1,A4C C15A U20G G33A,0.02
2,C3U G30C C42U U43A,0.11
3,A4C C10A G22U,0.01
4,A4C C13U G17A G21U G33C U34A G44U,0.01
5,A4C A6G G40U C46G,0.22
6,A4C A11G A12U G35C,0.01
7,C3U U9A C31A,0.1
8,C3U U9A U20A G30C U34G C46U,0.15
9,C3U G22C A26C U32G,0.01
10,A4C C15A C18U,0.09
11,A4C C10A G19U G30C,0.02
12,C3U G7U G21U G29C C45U C46G,0.13
13,A4C C10A A26G U32A C45U,0.02
14,A4C A41C C42A,0.07
15,A4C A6C C8U G33A U38C,0.42
16,A4C C8G U9A,0.07
17,C3U U20G U43C,0.04
18,A4C A14U G33U,0.23
19,A4C C13G G40C C42A,0.28
20,C3U U20G C23U G33A C46A,0.05
21,C3U G17U G36A C37G,0.05
22,C3U G27U C37A,0.01
23,A4C C13U G30A C37A C42U,0.09
24,A4C C10A A12G G30U,0

row,Variant,self-cleavage
1,C3U G7U A26C U32A,0.13
2,A4C A6U G7C U32C,0.09
3,C3U U9A A11C G17A G30A A39G,0.02
4,A4C C18U C37A C46G,0.28
5,C3U G19U G40A,0.16
6,A4C A11G G19U G22C U32C C46A,0.01
7,A4C A11U G40A,0.02
8,C3U G29A G35U,0.16
9,A4C A6G A11U A16C U34A,0.04
10,A4C A11C G22A A25G U38G,0.01
11,C3U G21A G35A,0.24
12,C3U G17U A39G,0.09
13,C3U U20C G30A G33A,0.04
14,C3U G7C C8A A12G A26U,0.01
15,A4C C8A C18A U20A A39U,0.04
16,A4C C15G G21A C42G U43G,0.02
17,A4C C10U A41U,0.07
18,C3U G27C G33U U38G G40A,0.02
19,A4C A14C G19A,0.08
20,C3U G17C G22U A24G U34C,0.13
21,A4C C18G U28A,0
22,A4C C10U A12C G33A G44C,0.03
23,C3U G35C G40C,0.1
24,A4C A12U A39C,0.06

row,Variant,self-cleavage
1,C3U G17C G19A U43A,0.16
2,C3U U38C A39C,0.17
3,A4C C10U A14G G19U G36A,0.03
4,A4C A16G G44A,0.06
5,A4C A12G U32G G35A,0.21
6,A4C A11C C23U G29U,0.01
7,A4C C18U C46U,0.04
8,A4C A11G C15A G21C G27A,0.02
9,A4C A11C A16G G19A,0.01
10,C3U G21U G27A,0.05
11,C3U G7C G21U U38C G40C,0.04
12,C3U G7U C8A G30U C31G C46U,0.21
13,A4C A16U A41C,0.04
14,A4C C10U A16G C23G G44C,0.04
15,A4C A24U G33U,0.04
16,C3U U34A U43A,0.05
17,C3U G17A A39C,0.08
18,A4C A14U U32A,0.08
19,A4C C10U U28G C31U,0.02
20,A4C C15U A39U,0.07
21,A4C C13A U20A G22U C23A U28C G33A,0.04
22,C3U G7C G17U A41G,0.06
23,C3U G7U G44A,0.03
24,C3U G21A A41G,1.38

row,Variant,self-cleavage
1,A4C C15A A39U,0.05
2,A4C C15A G27C G33C A39C,0.01
3,A4C C8G A14C G44A,0.04
4,A4C C10G G19U U34G,0.02
5,C3U G29U G33C,0.09
6,A4C C10A G19A,0.01
7,A4C C8A A41G,0.39
8,A4C A11C A26C G27C,0.01
9,A4C A12G C13U C23G C31G C45U,0
10,C3U G22U G33A G35U A41G,0.11
11,A4C A12U C18G G19U C23U C46G,0.01
12,A4C A6U U34G,0
13,A4C A14U C15U G27A A39G,0.01
14,A4C A11C C13G,0.02
15,C3U G7U A25C G33A,0.14
16,A4C C10G A14C G36U G40A C45A,0.01
17,A4C A11G A16G C31A U32A G36U,0
18,C3U G40U A41C,0.11
19,C3U U9A G17A A25G G30A,0.09
20,C3U G22U A39U G40C,0.08
21,A4C C13A G30U,0.05
22,C3U G22U G27U,0.09
23,A4C C8U G17A C23A A26U,0.23
